Whole data set: some 33,000 sequences, median “E-score (-0.5 to 0.5)” near -0.017, cut for the highest 2% near 0.3. The list shows a part of the results.
Each sequence was assayed against T1, Sut1 (UniProt P53032) (assay: PBM E-score (8-mer binding enrichment) (E-score (-0.5 to 0.5)); higher = stronger / more preferred TF binding; most listed sequences are background and not binding sites). Settings: protein concentration: 200 nM; construct: GST-full length.
T1 sequence: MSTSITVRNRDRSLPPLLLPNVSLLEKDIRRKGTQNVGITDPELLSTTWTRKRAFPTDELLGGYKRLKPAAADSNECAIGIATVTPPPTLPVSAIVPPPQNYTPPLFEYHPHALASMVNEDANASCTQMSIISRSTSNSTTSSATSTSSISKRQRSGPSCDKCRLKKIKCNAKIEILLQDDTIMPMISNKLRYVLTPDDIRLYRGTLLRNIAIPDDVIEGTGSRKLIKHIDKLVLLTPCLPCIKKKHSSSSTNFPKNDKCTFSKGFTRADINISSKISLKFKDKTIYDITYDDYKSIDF
How it was run: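 Masliner-normalised scans of fluorescent anti-GST signal were the basis for scoring. That signal came from GST-tagged yeast transcription factors applied at about 100-200 nM to double-stranded universal all-10-mer Agilent arrays on fresh or once-stripped slides. Each ungapped eight-base word, pooled with its reverse complement, received an E-score from the Universal PBM Analysis Suite.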

| Sequence | PBM E-score |
| --- | --- |
| GATAAAAC | 0.208 |
| AGTCAGCC | -0.241 |
| CCAATGGC | -0.105 |
| CATGAATC | -0.0326 |
| CCAGCATC | -0.116 |
| AATCGTAA | 0.174 |
| GTGCTGTA | -0.0633 |
| CGCTTGTC | 0.0336 |
| GAGACCGC | -0.234 |
| CTACCCCA | -0.204 |
| ACCGCTCT | -0.0711 |
| AGCAGCGG | -0.275 |
| CTGATCTA | -0.0878 |
| CCCGGTCG | -0.0685 |
| ATGGCTCC | -0.0131 |
| AAACGTTC | -0.125 |
| CAGCAACG | 0.11 |
| GGACGACC | -0.232 |
| AGCTGAGA | -0.137 |
| AGCTAGAA | -0.0234 |
| TAAAGTTA | 0.254 |
| GAGGCTCC | 0.0186 |

| Sequence | PBM E-score |
| --- | --- |
| CCGCGACC | -0.177 |
| AAATTGCC | 0.106 |
| AGCCACGC | -0.0742 |
| AAGTTCCA | 0.0223 |
| ATAGTTTG | 0.152 |
| CAAGGGCC | -0.122 |
| CCCGCAGA | -0.178 |
| ATGCGAGG | -0.0857 |
| GCGGTTTA | -0.0658 |
| ATGCGATA | 0.0196 |
| AATCCTAG | 0.124 |
| GCCTTGAA | -0.0567 |
| TCTACACA | 0.079 |
| AAAACCCC | 0.137 |
| CAAATGAA | 0.129 |
| TCCCCCCA | -0.32 |
| GAAACTAA | 0.00617 |
| GCTATGAA | 0.103 |
| GTCCAGTA | -0.0627 |
| ATTGTACG | 0.124 |
| AACACAAT | 0.16 |
| ATACACGC | 0.08 |

| Sequence | PBM E-score |
| --- | --- |
| ATCGGGTG | -0.0939 |
| CTGCCCCA | -0.257 |
| AAGGTATC | -0.0221 |
| CTGGCGTA | -0.34 |
| CTATGGTC | -0.201 |
| AATCCGCA | 0.00046 |
| TCCGGTCA | 0.159 |
| AATGTGCT | 0.0947 |
| AGGGCCTA | -0.0494 |
| CTGGCATC | -0.305 |
| ACGCTTTC | -0.202 |
| CACCTTGC | 0.00165 |
| AAGGGAGA | -0.2 |
| CAAACAAA | 0.161 |
| TGGCTACA | 0.05 |
| CTCATCAC | -0.135 |
| GATCATGA | 0.0977 |
| GCTGCATA | -0.132 |
| AATGGCCA | 0.0267 |
| ACCCCGAT | 0.342 |
| AGCTTTCA | -0.064 |
| AAGTGCTA | -0.0562 |

| Sequence | PBM E-score |
| --- | --- |
| GGTTGGAC | -0.158 |
| CGACGGTC | -0.203 |
| CAAACAGC | -0.0993 |
| AGCGTCGA | -0.059 |
| TCCACTAA | 0.0668 |
| CTGGGTAA | -0.0456 |
| CGCCCGAG | -0.0717 |
| ATAACATA | 0.273 |
| ACTGCGTA | -0.133 |
| ACTCCTAA | 0.121 |
| CGCGCAAA | 0.14 |
| AAGGGCCA | -0.132 |
| GGTGCGAA | -0.0547 |
| TCGACACA | -0.129 |
| ATAGAGTA | 0.117 |
| AAGATAGT | 0.15 |
| GGTTCAAC | -0.104 |
| GAACACGA | 0.0455 |
| ACAAGCCG | -0.0378 |
| ATCTTATA | 0.248 |

— the supplement of paper PMC3334620
